Experiments:
human CRHR2 = test: CRH-induced luciferase reporter blocking assay, CHO-CRE-hCRHR2 cells; type: cell-based
Experimental: (§1) To create CHO-CRE-hCRHR1, -hCRHR2, -mCRHR1, and -mCRHR2 reporter cell lines, pcDNA3.1-hCRHR1, -hCRHR2, -mCRHR1, and -mCRHR2 were introduced into CHO-CRE cells established above by electroporation as described above. Selection antibiotics hygromycin at 500 μg/ml and G418 at 1,000 μg/ml were employed. Individual established stable cell lines were characterized by both CRH and forskolin stimulation.
Activated GPCR proteins increase production of the intracellular cAMP. CHO-CRE-human CRHR1 stable clone 11 was generated by introduction of pcDNA3.1-human CRHR1 under the selection of G418 and hygromycin. Human CRHR1 expression in CHO-CRE-hCRHR1 Clone 11 was confirmed by flow cytometry (data not shown). To further validate that the cell line was functional, CHO-CRE-hCRHR1 Clone 11 cells were treated with forskolin and CRH peptide. […] Subsequently CHO-CRE-hCRHR2 Clone 32, -mCRHR1 Clone 22, and -mCRHR2 Clone 8 cell lines were established using similar methodology and validated with CRH treatment (data not shown).
Blocking CRHR1 by small molecules or neutralization of CRH peptide can reduce luciferase expression if the CRH-CRHR1 system works in CHO-CRE-hCRHR1 cells. Antalarmin, a small molecule CRHR1 antagonist, blocked CRH-mediated luciferase expression in CHO-CRE-hCRHR1 Clone 11 (data not shown). Furthermore, sheep anti-CRH polyclonal antibody reduced CRH-mediated luciferase expression in these cells (data not shown). Likewise, sheep anti-CRH polyclonal antibody blocked CRH-mediated luciferase expression in CHO-CRE-hCRHR2, CHO-CRE-mCRHR1, and CHO-CRE-mCRHR2 cells (data not shown).
(§2) Cells were digested by trypsin-EDTA (Life technologies, Cat #:12604-013), centrifuged at 1,000 rpm for 5 min, resuspended in growth medium, counted using a cell counter, seeded at a concentration of 5,000 cells per 100 μl in 96-well flat plates, and incubated overnight. 50 μl of 4× serially diluted antibodies was added (8 points, 1/4 diluted by growth medium) to plates containing CHO-CRE-hCRHR1 cells, and 50 μl of 4×CRH (4× is 2 nM, final is 0.5 nM) was added. Similarly, 4×CRH (4× is 0.4 nM, final is 0.1 nM) was added to CHO-CRE-hCRHR2 cells and CHO-CRE-mCRHR1 cells, and 4×CRH (4× is 20 nM, final is 5 nM) was added to CHO-CRE-mCRHR2 cells. Next, plates were incubated 4-6 hours at 37° C. in a CO2 incubator. 60 μl of culture medium was removed, to which was added 60 μl of Bio-Glo luciferase, followed by incubation for 10 min at RT. Plates were read in a luciferase plate reader (EnVision, PerkinElmer).

mouse CRHR2 = test: CRH-induced luciferase reporter blocking assay, CHO-CRE-mCRHR2 cells; type: cell-based; conditions: Table 9; mCrhr2
Experimental: as §1, with “stimulation. […]” for “stimulation.”
as §2

| Molecule | IC50 (human CRHR2; CHO-CRE-hCRHR2 cells, 0.1 nM CRH) [nM] | IC50 (human CRHR2; Table 9, hCRHR2) [nM] | IC50 (mouse CRHR2) [nM] |
| --- | --- | --- | --- |
| PR006745: ΔPTM variant of Series 2 mAb PR006669; HCDR2 54DA55 (antibody) heavy: EVQLVESGGGLVQPGGSLRLSCAASGFTFSDNWMSWVRQAPGKGLEWVANIKQDASENYYVDSVKGRFTISRDNAKNSLYLQMNSLRAEDTAVYYCSRGLALWGWGQGTLVTVSS[human IgG1 constant region not listed] light: DIVMTHSPLSLPVTPGDPASISCRSSQSLLHSTGYNYLDWYLQKPGQSPQLLIYLGSNRASGVPDRFSGSGSGTDFTLKFIRVEAEDVGVYYCMQALQTPYTFGQGTKLEIKRTVAAPSVFIFPPSDEQLKSGTASVVCLLNNFYPREAKVQWKVDNALQSGNSQESVTEQDSKDSTYSLSSTLTLSKADYEKHKVYACEVTHQGLSSPVTKSFNRGEC | 61 |  |  |
| PR302341-43 (antibody) heavy: QVQLVQSGAEVKKPGASVKVSCKASGYTFTDYFMKWVRQAPGQGLEWMGVINPNNADIFYNQKFKGRVTMTVDKSTSTAYMELSSLRSEDTAVYYCARGTDRALFAYWGQGTLVTVSS[human IgG1 constant region not listed] light: DVVMTQTPLSSPVTLGQPASISCRSGQSIVHSDGNTYLEWYQQRPGQPPRLLIYKVSNRFSGVPDRFSGSGAGTDFTLKISRVEAEDLGVYYCFQGSHIPWTFGGGTKVEIKRTVAAPSVFIFPPSDEQLKSGTASVVCLLNNFYPREAKVQWKVDNALQSGNSQESVTEQDSKDSTYSLSSTLTLSKADYEKHKVYACEVTHQGLSSPVTKSFNRGEC |  | 0.647 | 0.999 |
| PR302341-45 (antibody) heavy: QVQLVQSGAEVKKPGASVKVSCKASGYTFTDYFMKWVRQAPGQGLEWMGVINPNQGDIFYNQKFKGRVTMTVDKSTSTAYMELSSLRSEDTAVYYCARGTDRALFAYWGQGTLVTVSS[human IgG1 constant region not listed] light: DVVMTQTPLSSPVTLGQPASISCRSGQSIVHSDGNTYLEWYQQRPGQPPRLLIYKVSNRFSGVPDRFSGSGAGTDFTLKISRVEAEDLGVYYCFQGSHIPWTFGGGTKVEIKRTVAAPSVFIFPPSDEQLKSGTASVVCLLNNFYPREAKVQWKVDNALQSGNSQESVTEQDSKDSTYSLSSTLTLSKADYEKHKVYACEVTHQGLSSPVTKSFNRGEC |  | 1.39 | ~2.27 |
| PR302341-46 (antibody) heavy: QVQLVQSGAEVKKPGASVKVSCKASGYTFTDYFMKWVRQAPGQGLEWMGVINPNNADIFYNQKFKGRVTMTVDKSTSTAYMELSSLRSEDTAVYYCARGTDRALFAYWGQGTLVTVSS[human IgG1 constant region not listed] light: DVVMTQTPLSSPVTLGQPASISCRSGQSIVHSDANTYLEWYQQRPGQPPRLLIYKVSNRFSGVPDRFSGSGAGTDFTLKISRVEAEDLGVYYCFQGSHIPWTFGGGTKVEIKRTVAAPSVFIFPPSDEQLKSGTASVVCLLNNFYPREAKVQWKVDNALQSGNSQESVTEQDSKDSTYSLSSTLTLSKADYEKHKVYACEVTHQGLSSPVTKSFNRGEC |  |  | 2.78 |
| PR302341-47 (antibody) heavy: QVQLVQSGAEVKKPGASVKVSCKASGYTFTDYFMKWVRQAPGQGLEWMGVINPNSGDIFYNQKFKGRVTMTVDKSTSTAYMELSSLRSEDTAVYYCARGTDRALFAYWGQGTLVTVSS[human IgG1 constant region not listed] light: DVVMTQTPLSSPVTLGQPASISCRSGQSIVHSDANTYLEWYQQRPGQPPRLLIYKVSNRFSGVPDRFSGSGAGTDFTLKISRVEAEDLGVYYCFQGSHIPWTFGGGTKVEIKRTVAAPSVFIFPPSDEQLKSGTASVVCLLNNFYPREAKVQWKVDNALQSGNSQESVTEQDSKDSTYSLSSTLTLSKADYEKHKVYACEVTHQGLSSPVTKSFNRGEC |  | 2.45 | 2.16 |
| PR302341-52 (antibody) heavy: QVQLVQSGAEVKKPGASVKVSCKASGYTFTDYFMKWVRQAPGQGLEWMGVINPNNADIFYNQKFKGRVTMTVDKSTSTAYMELSSLRSEDTAVYYCARGTDRALFAYWGQGTLVTVSS[human IgG1 constant region not listed] light: DVVMTQTPLSSPVTLGQPASISCRSGQSIVHSSGNTYLEWYQQRPGQPPRLLIYKVSNRFSGVPDRFSGSGAGTDFTLKISRVEAEDLGVYYCFQGSHIPWTFGGGTKVEIKRTVAAPSVFIFPPSDEQLKSGTASVVCLLNNFYPREAKVQWKVDNALQSGNSQESVTEQDSKDSTYSLSSTLTLSKADYEKHKVYACEVTHQGLSSPVTKSFNRGEC |  | 3.02 | 3.53 |
| PR302341-53 (antibody) heavy: QVQLVQSGAEVKKPGASVKVSCKASGYTFTDYFMKWVRQAPGQGLEWMGVINPNSGDIFYNQKFKGRVTMTVDKSTSTAYMELSSLRSEDTAVYYCARGTDRALFAYWGQGTLVTVSS[human IgG1 constant region not listed] light: DVVMTQTPLSSPVTLGQPASISCRSGQSIVHSSGNTYLEWYQQRPGQPPRLLIYKVSNRFSGVPDRFSGSGAGTDFTLKISRVEAEDLGVYYCFQGSHIPWTFGGGTKVEIKRTVAAPSVFIFPPSDEQLKSGTASVVCLLNNFYPREAKVQWKVDNALQSGNSQESVTEQDSKDSTYSLSSTLTLSKADYEKHKVYACEVTHQGLSSPVTKSFNRGEC |  | 2.37 | 3.16 |
| PR302341-54 (antibody) heavy: QVQLVQSGAEVKKPGASVKVSCKASGYTFTDYFMKWVRQAPGQGLEWMGVINPNQGDIFYNQKFKGRVTMTVDKSTSTAYMELSSLRSEDTAVYYCARGTDRALFAYWGQGTLVTVSS[human IgG1 constant region not listed] light: DVVMTQTPLSSPVTLGQPASISCRSGQSIVHSSGNTYLEWYQQRPGQPPRLLIYKVSNRFSGVPDRFSGSGAGTDFTLKISRVEAEDLGVYYCFQGSHIPWTFGGGTKVEIKRTVAAPSVFIFPPSDEQLKSGTASVVCLLNNFYPREAKVQWKVDNALQSGNSQESVTEQDSKDSTYSLSSTLTLSKADYEKHKVYACEVTHQGLSSPVTKSFNRGEC |  | 5.05 | 2.19 |
| PR302341-57 (antibody) heavy: QVQLVQSGAEVKKPGASVKVSCKASGYTFTDYFMKWVRQAPGQRLEWMGVINPNQGDIFYNQKFKGRVTITRDTSASTAYMELSSLRSEDTAVYYCARGTDRALFAYWGQGTLVTVSS[human IgG1 constant region not listed] light: DVVMTQSPLSLPVTLGQPASISCRSGQSIVHSDGNTYLEWYQQRPGQSPRLLIYKVSNRFSGVPDRFSGSGSGTDFTLKISRVEAEDLGVYYCFQGSHIPWTFGGGTKVEIKRTVAAPSVFIFPPSDEQLKSGTASVVCLLNNFYPREAKVQWKVDNALQSGNSQESVTEQDSKDSTYSLSSTLTLSKADYEKHKVYACEVTHQGLSSPVTKSFNRGEC |  | 4.67 | 1.66 |
| PR302341-58 (antibody) heavy: QVQLVQSGAEVKKPGASVKVSCKASGYTFTDYFMKWVRQAPGQRLEWMGVINPNNADIFYNQKFKGRVTITRDTSASTAYMELSSLRSEDTAVYYCARGTDRALFAYWGQGTLVTVSS[human IgG1 constant region not listed] light: DVVMTQSPLSLPVTLGQPASISCRSGQSIVHSDANTYLEWYQQRPGQSPRLLIYKVSNRFSGVPDRFSGSGSGTDFTLKISRVEAEDLGVYYCFQGSHIPWTFGGGTKVEIKRTVAAPSVFIFPPSDEQLKSGTASVVCLLNNFYPREAKVQWKVDNALQSGNSQESVTEQDSKDSTYSLSSTLTLSKADYEKHKVYACEVTHQGLSSPVTKSFNRGEC |  | 3.35 | 1.72 |
| PR302341-59 (antibody) heavy: QVQLVQSGAEVKKPGASVKVSCKASGYTFTDYFMKWVRQAPGQRLEWMGVINPNSGDIFYNQKFKGRVTITRDTSASTAYMELSSLRSEDTAVYYCARGTDRALFAYWGQGTLVTVSS[human IgG1 constant region not listed] light: DVVMTQSPLSLPVTLGQPASISCRSGQSIVHSDANTYLEWYQQRPGQSPRLLIYKVSNRFSGVPDRFSGSGSGTDFTLKISRVEAEDLGVYYCFQGSHIPWTFGGGTKVEIKRTVAAPSVFIFPPSDEQLKSGTASVVCLLNNFYPREAKVQWKVDNALQSGNSQESVTEQDSKDSTYSLSSTLTLSKADYEKHKVYACEVTHQGLSSPVTKSFNRGEC |  | 3.01 | 3 |

— patent publication US20260042834A1, “ANTI-CORTICOTROPIN-RELEASING HORMONE ANTIBODIES AND POLYCYSTIC OVARY SYNDROME” (HBM ALPHA THERAPEUTICS, INC., priority 2022, published 2026)
